Values joined by “and” are separate entries in the source; they are usually repeats but may differ in a detail not shown here. Equal entries are not always repeated. The whole screen tested about 110,000 compounds, of which about 230 (0.21%) showed an effect of 50% or more. This is one part of the list.
What follows are compounds tested against DPAP1 (Plasmodium falciparum, UniProt Q8IIJ9) (assay: primary screen, percent inhibition; read by cleavage of a fluorogenic dipeptide substrate; higher = more effect of the substance).
DPAP1, sequence (Q8IIJ9 whole entry, looked up): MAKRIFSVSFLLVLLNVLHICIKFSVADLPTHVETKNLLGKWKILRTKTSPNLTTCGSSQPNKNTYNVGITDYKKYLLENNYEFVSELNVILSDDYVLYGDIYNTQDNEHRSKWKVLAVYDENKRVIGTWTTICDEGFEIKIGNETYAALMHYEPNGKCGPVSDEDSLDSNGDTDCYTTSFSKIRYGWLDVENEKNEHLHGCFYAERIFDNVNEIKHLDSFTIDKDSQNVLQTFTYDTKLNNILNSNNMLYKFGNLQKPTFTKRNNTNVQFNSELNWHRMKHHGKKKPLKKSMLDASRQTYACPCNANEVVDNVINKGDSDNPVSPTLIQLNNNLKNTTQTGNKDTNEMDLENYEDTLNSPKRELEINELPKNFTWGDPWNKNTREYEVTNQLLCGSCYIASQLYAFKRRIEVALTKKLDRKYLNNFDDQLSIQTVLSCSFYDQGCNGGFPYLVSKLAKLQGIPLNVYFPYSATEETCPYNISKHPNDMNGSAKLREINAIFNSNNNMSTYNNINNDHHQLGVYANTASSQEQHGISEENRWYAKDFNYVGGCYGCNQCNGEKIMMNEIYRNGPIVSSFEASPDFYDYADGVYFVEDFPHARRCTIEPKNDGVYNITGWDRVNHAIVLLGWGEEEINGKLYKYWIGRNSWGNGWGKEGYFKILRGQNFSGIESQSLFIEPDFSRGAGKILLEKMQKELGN
Set-up: species or system P. falciparum D10 trophozoite lysates; single well
With CN(C)c1ccc(C2C3C(=O)N(Cc4ccccc4)C(=O)C3ON2c2ccccc2)cc1 (centres unmarked) the “% Inhibition @ 10 uM” value was -2.8%.
CN(C1CCCCC1)S(=O)(=O)c1ccc(N)cc1 was tested, and the “% Inhibition @ 10 uM” value was 2.32%.
For CCCCCCN1CC(=O)C(c2nc3ccccc3[nH]2)=C1N, the “% Inhibition @ 10 uM” value was 3.74%.
O=C(Nc1nnc(N2CCCCC2)s1)NC12CC3CC(CC(C3)C1)C2 was tested, and the “% Inhibition @ 10 uM” value was -4.68%.
O=C(CCCn1c(=O)c2cccn2c2cccnc21)N1CCC(Cc2ccccc2)CC1 was tested, and the “% Inhibition @ 10 uM” value was 0.677%.
For O=C(O)C1CCCCC1C(=O)Nc1nc2ccc(Cl)cc2s1 (centres unmarked), the “% Inhibition @ 10 uM” value was -4.7%.
For Cc1ccc(Cn2c(C(=O)O)c(CNC3CCC(C)CC3)c3ccc(C)cc32)cc1 (centres unmarked), the “% Inhibition @ 10 uM” value was 8.35%.
With O=C(CN1N=C(c2ccccc2)CCC1=O)NCCCN1CCN(Cc2ccccc2)CC1 the “% Inhibition @ 10 uM” value was -4.83%.
With CCc1ccc(S(=O)(=O)N2CCN(S(=O)(=O)c3ccc(CC)cc3)C(C)C2)cc1 (centres unmarked) the “% Inhibition @ 10 uM” value was 2.26%.
In the case of CC[Si](C)(CC)CCCn1c(=O)c2c(nc(N3CCOCC3)n2C)n(C)c1=O, the “% Inhibition @ 10 uM” value is reported as -1.47%.
Cc1cc(C)c(S(=O)(=O)/N=C2/C=C(SCC(=O)O)C(=O)c3ccccc32)c(C)c1 was tested, and the “% Inhibition @ 10 uM” value was 0.0539%.
O=C(O)C1(c2ccccc2)CCN(Cc2ccccc2)CC1 was tested, and the “% Inhibition @ 10 uM” value was -1.33%.
In the case of O=C(CCCN1C(=O)c2ccccc2C1=O)N1CCCCC1, the “% Inhibition @ 10 uM” value is reported as -2.17%.
With N#Cc1nc(-c2ccc(F)cc2)oc1N1CCCCC1 the “% Inhibition @ 10 uM” value was -3.14%.
Cc1ccc(C)c(CNC(=O)c2nc(O)c3nnn(CC4CCCO4)c3n2)c1 (centres unmarked) was tested, and the “% Inhibition @ 10 uM” value was -5.51%.
With Cc1ccnn1CCC(=O)O the “% Inhibition @ 10 uM” value was -2.28%.
With CCc1nnc(SCC(=O)N(C)C2CCCCC2)c2cc3sc(C)cc3n12 the “% Inhibition @ 10 uM” value was -12.3%.
COCCCN1CN(Cc2ccco2)CNC1=S was tested, and the “% Inhibition @ 10 uM” value was -9.59%.
With CC1CCC2C(=O)N(CNc3ccc(Cc4ccncc4)cc3)C(=O)C2C1 (centres unmarked) the “% Inhibition @ 10 uM” value was -3.83%.
COc1ccc(CCNc2nn3nnnc3c3ccccc23)cc1OC was tested, and the “% Inhibition @ 10 uM” value was 1.15%.
CCCc1[nH]nc2c1C(c1sccc1C)C(C#N)=C(N)O2 (centres unmarked) was tested, and the “% Inhibition @ 10 uM” value was -0.725%.
In the case of c1cncc(-c2nn3cnnc3s2)c1, the “% Inhibition @ 10 uM” value is reported as 5.43%.
O=C(c1ccccc1)c1cn(CC(=O)N2CCOCC2)c2ccccc12 was tested, and the “% Inhibition @ 10 uM” value was -0.0735%.
In the case of COc1ccccc1OCC(=O)Nc1ccc(S(=O)(=O)N2CCCCCC2)cc1, the “% Inhibition @ 10 uM” value is reported as -0.425%.
In the case of O=C(Nc1ccc(Br)cc1)/C(=C/c1cccnc1)NC(=O)c1ccccc1, the “% Inhibition @ 10 uM” value is reported as 2.08%.
For Cc1cccc(N2C(=O)CC(NC3CCCCC3)C2=O)c1 (centres unmarked), the “% Inhibition @ 10 uM” value was 1.78%.
In the case of Cc1ccccc1C(=O)N1CCN(C/C=C/c2ccccc2)CC1, the “% Inhibition @ 10 uM” value is reported as -3.27% and 3.47%.
In the case of COc1ccc(OC)c(C2C3=C(O)CC(C)(C)CC3=NC(C)=C2C(=O)Nc2ccccc2F)c1 (centres unmarked), the “% Inhibition @ 10 uM” value is reported as -9.33%.
In the case of Cc1ccc2oc(=O)n(Cc3ccc(OC(C)C)cc3)c2c1, the “% Inhibition @ 10 uM” value is reported as 6.98%.
With Cc1nn(-c2ccc(F)cc2)c(O)c1/C=N/c1c(C)nn(C)c1C the “% Inhibition @ 10 uM” value was -0.68%.
For COc1ccc(-c2nc3ccccc3n2C)cc1OC, the “% Inhibition @ 10 uM” value was -4.07%.
With CC12c3ccccc3C(c3ccccc31)C1C(=O)NN(c3ccccc3)C(=O)C12 (centres unmarked) the “% Inhibition @ 10 uM” value was -0.759%.
COc1ccccc1/C=C/CN1CCN(c2ccc(Cl)cc2)CC1 was tested, and the “% Inhibition @ 10 uM” value was 0.0792%.
In the case of CC1CC(C)CN(S(=O)(=O)c2ccccc2[N+](=O)[O-])C1 (centres unmarked), the “% Inhibition @ 10 uM” value is reported as 3.53%.
For CC(C)C(=O)Nc1ccc(NC(=O)c2cc(Br)ccc2Cl)cc1, the “% Inhibition @ 10 uM” value was -7.34%.
For Cc1ccc(CCNc2c(-c3ccc(C(C)C)cc3)c(=O)c2=O)cc1, the “% Inhibition @ 10 uM” value was -1.98%.
For CCOc1ccc(C(=O)OC2CCCN(C)C2)cc1 (centres unmarked), the “% Inhibition @ 10 uM” value was 3.8%.
Cc1ccc2nc(C)cc(Nc3ccc4c(c3)OCCO4)c2c1 was tested, and the “% Inhibition @ 10 uM” value was -1.84%.
With CCOC(=O)c1ccc(-n2c(C)cc(C=C3C(=O)c4ccccc4C3=O)c2C)cc1 the “% Inhibition @ 10 uM” value was 6.51%.
In the case of CCOc1ccc(NC(=O)C2CC(=O)N(C)/C(=N/c3ccc(OC)cc3)S2)cc1 (centres unmarked), the “% Inhibition @ 10 uM” value is reported as -13.4%.
CC(C)Cn1c(-c2nonc2NC(=O)c2ccccc2Cl)nc2ccccc21 was tested, and the “% Inhibition @ 10 uM” value was -1.92%.
With CCCSCCCNC(=O)Cn1nc(C)n2c(cc3sccc32)c1=O the “% Inhibition @ 10 uM” value was -1.58%.
In the case of COc1ccc(CNC(=O)C2CCN(S(=O)(=O)N3CC(C)CC(C)C3)CC2)c(OC)c1 (centres unmarked), the “% Inhibition @ 10 uM” value is reported as 3.59%.
With CCN(CC)CCCNC(=S)N1CCn2c(nc3ccccc32)C1 the “% Inhibition @ 10 uM” value was 3.96%.
CC(C)(C)OC(=O)N1CCC(c2cc(O)n3ncc(C(=O)NC4CCCC4)c3n2)CC1 was tested, and the “% Inhibition @ 10 uM” value was -1.03%.
COc1ccc(/C=C2\SC(=O)N(CC(=O)N3CCOCC3)C2=O)cc1Br was tested, and the “% Inhibition @ 10 uM” value was 4.22%.
With COc1ccc(C2(O)C[N+](c3ccc(Cl)cc3)=C3CCCCCN32)cc1 (centres unmarked) the “% Inhibition @ 10 uM” value was -1.4%.
With COC(=O)c1ccc(C2C3=C(CC(C)(C)CC3=O)N(Cc3cccnc3)C3=C2C(=O)CC(C)(C)C3)cc1 the “% Inhibition @ 10 uM” value was 1.91%.
In the case of COCCNC(=O)C1CCN(c2nnc(C)c3c(C)n(-c4ccc(OC)cc4)nc23)CC1, the “% Inhibition @ 10 uM” value is reported as 3.23%.
With CN1CCN(CCCC(=O)c2ccc(F)cc2)CC1 the “% Inhibition @ 10 uM” value was 2.23%.

Source: PMC6919601, “Identification of Plasmodium dipeptidyl aminopeptidase allosteric inhibitors by high throughput screening” (PLoS ONE, 2019)
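Note: 30 min substrate incubation versus DMSO and 10 µM JCP410 controls.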
